# The supplement of paper PMC8728848
# Some of the results follow.
# B1: RfpB (Mycobacterium tuberculosum), O05594 (protein)
# chain: MAAGLVTASMSLSTAVAHAGPSPNWDAVAQCESGGNWAANTGNGKYGGLQFKPATWAAFGGVGNPAAASREQQIAVANRVLAEQGLDAWPTCGAASGLPIALWSKPAQGIKHAGPSPNWDAVAQCESGGNWAANTGNGKYGGLQFKPATWAAFGGVGNPAAASREQQIAVANRVLAEQGLDAWPTCGA
# Legend:
# Experiment in all cases: glycan array binding signal (z-score within array); higher = stronger binding
# Conditions in all cases: glycan notation: IUPAC condensed, linker removed
# [1] = biological target: Neu5Ac(a2-6)Gal(b1-4)GlcNAc(b1-2)Man(a1-3)[GlcNAc(b1-2)Man(a1-6)]Man(b1-4)GlcNAc(b1-4)GlcNAc
# Summary of the method: (§1)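 The binding signal is a Z-score computed within each array. Data were drawn from 3228 arrays in the Consortium for Functional Glycomics database, restricted to those with a known protein sequence. Scores were averaged over arrays of the same protein sequence at different concentrations or buffers, and over linkers, and negative values can be taken as non-binding.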
# [2] = biological target: Neu5Ac(a2-6)Gal(b1-4)GlcNAc(b1-2)Man(a1-3)[GlcNAc(b1-2)Man(b1-4)GlcNAc(b1-2)Man(a1-6)]Man(b1-4)GlcNAc(b1-4)GlcNAc
# Summary of the method: as §1
# [3] = biological target: Neu5Ac(a2-6)Gal(b1-4)GlcNAc(b1-2)Man(a1-3)[Neu5Ac(a2-6)Gal(b1-4)GlcNAc(b1-2)Man(a1-6)]Man(b1-4)GlcNAc(b1-4)GlcNAc
# Summary of the method: as §1
# [4] = biological target: Neu5Ac(a2-6)Gal(b1-4)GlcNAc(b1-2)Man(a1-6)[Gal(b1-4)GlcNAc(b1-2)Man(a1-3)]Man(b1-4)GlcNAc(b1-4)GlcNAc
# Summary of the method: as §1
# [5] = biological target: Neu5Ac(a2-6)Gal(b1-4)GlcNAc(b1-2)Man(a1-6)[GlcNAc(b1-2)Man(a1-3)]Man(b1-4)GlcNAc(b1-4)GlcNAc
# Summary of the method: as §1
# [6] = biological target: Neu5Ac(a2-6)Gal(b1-4)GlcNAc(b1-3)Gal(b1-4)GlcNAc
# Summary of the method: as §1
# [7] = biological target: Neu5Ac(a2-6)Gal(b1-4)GlcNAc(b1-3)Gal(b1-4)[Fuc(a1-3)]GlcNAc(b1-3)Gal(b1-4)[Fuc(a1-3)]GlcNAc
# Summary of the method: as §1
# [8] = biological target: Neu5Ac(a2-6)Gal(b1-4)GlcNAc6S
# Summary of the method: as §1
# Neu5Ac(a2-6)GalNAc = biological target: Neu5Ac(a2-6)GalNAc
# Summary of the method: as §1
# [9] = biological target: Neu5Ac(a2-6)GalNAc(b1-4)GlcNAc
# Summary of the method: as §1
# Neu5Ac(a2-8)Neu5Ac = biological target: Neu5Ac(a2-8)Neu5Ac
# Summary of the method: as §1
# [10] = biological target: Neu5Ac(a2-8)Neu5Ac(a2-3)Gal(b1-4)Glc
# Summary of the method: as §1
# [11] = biological target: Neu5Ac(a2-8)Neu5Ac(a2-3)[GalNAc(b1-4)]Gal(b1-4)Glc
# Summary of the method: as §1
# [12] = biological target: Neu5Ac(a2-8)Neu5Ac(a2-8)Neu5Ac
# Summary of the method: as §1
# [13] = biological target: Neu5Ac(a2-8)Neu5Ac(a2-8)Neu5Ac(a2-3)Gal(b1-4)Glc
# Summary of the method: as §1
# [14] = biological target: Neu5Ac(a2-8)Neu5Ac(a2-8)Neu5Ac(a2-3)[GalNAc(b1-4)]Gal(b1-4)Glc
# Summary of the method: as §1
# [15] = biological target: Neu5Ac(a2-8)Neu5Ac(a2-8)Neu5Ac(a2-8)Neu5Ac(a2-3)[GalNAc(b1-4)]Gal(b1-4)Glc
# Summary of the method: as §1
# [16] = biological target: Neu5Ac(b2-6)Gal(b1-4)GlcNAc
# Summary of the method: as §1
# Neu5Ac(b2-6)GalNAc = biological target: Neu5Ac(b2-6)GalNAc
# Summary of the method: as §1
# [17] = biological target: Neu5Ac9Ac(a2-6)Gal(b1-4)GlcNAc
# Summary of the method: as §1
# [18] = biological target: Neu5Gc(a2-3)Gal(b1-3)GlcNAc
# Summary of the method: as §1
# [19] = biological target: Neu5Gc(a2-3)Gal(b1-3)[Fuc(a1-4)]GlcNAc
# Summary of the method: as §1
# Neu5Gc(a2-3)Gal(b1-4)Glc = biological target: Neu5Gc(a2-3)Gal(b1-4)Glc
# Summary of the method: as §1
# [20] = biological target: Neu5Gc(a2-3)Gal(b1-4)GlcNAc
# Summary of the method: as §1
# [21] = biological target: Neu5Gc(a2-3)Gal(b1-4)[Fuc(a1-3)]GlcNAc
# Summary of the method: as §1
# [22] = biological target: Neu5Gc(a2-6)Gal(b1-4)GlcNAc
# Summary of the method: as §1
# Neu5Gc(a2-6)GalNAc = biological target: Neu5Gc(a2-6)GalNAc
# Summary of the method: as §1
# [23] = biological target: Neu5Gc(b2-6)Gal(b1-4)GlcNAc
# Summary of the method: as §1
binder,measurement,setting,value
B1,glycan array binding signal (z-score),[1],-0.499
same,glycan array binding signal (z-score),[2],-0.563
same,glycan array binding signal (z-score),[3],-0.289
same,glycan array binding signal (z-score),[4],-0.165
same,glycan array binding signal (z-score),[5],-0.536
same,glycan array binding signal (z-score),[6],-0.988
same,glycan array binding signal (z-score),[7],1.58
same,glycan array binding signal (z-score),[8],-0.352
same,glycan array binding signal (z-score),Neu5Ac(a2-6)GalNAc,-0.605
same,glycan array binding signal (z-score),[9],-0.639
same,glycan array binding signal (z-score),Neu5Ac(a2-8)Neu5Ac,0.607
same,glycan array binding signal (z-score),[10],-0.396
same,glycan array binding signal (z-score),[11],-0.281
same,glycan array binding signal (z-score),[12],0.077
same,glycan array binding signal (z-score),[13],-0.52
same,glycan array binding signal (z-score),[14],-0.688
same,glycan array binding signal (z-score),[15],-0.552
same,glycan array binding signal (z-score),[16],-0.626
same,glycan array binding signal (z-score),Neu5Ac(b2-6)GalNAc,-0.419
same,glycan array binding signal (z-score),[17],0.858
same,glycan array binding signal (z-score),[18],0.456
same,glycan array binding signal (z-score),[19],-0.528
same,glycan array binding signal (z-score),Neu5Gc(a2-3)Gal(b1-4)Glc,-0.323
same,glycan array binding signal (z-score),[20],-0.025
same,glycan array binding signal (z-score),[21],-0.209
same,glycan array binding signal (z-score),[22],-0.23
same,glycan array binding signal (z-score),Neu5Gc(a2-6)GalNAc,0.7
same,glycan array binding signal (z-score),[23],0.655
